Measurements from PubChem BioAssay AID1645887 (National Center for Advancing Translational Sciences (NCATS), 2021).
Several values for one entry are separate records, joined by “and”; a condition that tells them apart may be missing. Equal values may be shown once. About 40 (0.2%) of roughly 16,000 compounds were called active. Another 1% or so got no clear call; they are omitted. Calls follow the shape of the dose curve; as a rule, active = well fitted activation curve with a large enough effect; inconclusive = small, poorly fitted or top-dose-only effect, or another doubt; inactive = no such curve, though single readings can be large or run the other way. This is one part of the list.

target: Rap guanine nucleotide exchange factor 4 (Homo sapiens) (UniProt Q8WZA2); assay: Validation qHTS for agonist of cAMP-regulated guanine nucleotide exchange factor 4 (EPAC2); conditions: EPAC2 Rap1B BODIPY-GDP exchange, fluorescence; activation: active compounds read high;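 also: exchange makes BODIPY-GDP fluorescence drop when released from Rap1B; series mostly up to about 150 µM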
UniProt Q8WZA2, sequence (Q8WZA2 whole entry, looked up): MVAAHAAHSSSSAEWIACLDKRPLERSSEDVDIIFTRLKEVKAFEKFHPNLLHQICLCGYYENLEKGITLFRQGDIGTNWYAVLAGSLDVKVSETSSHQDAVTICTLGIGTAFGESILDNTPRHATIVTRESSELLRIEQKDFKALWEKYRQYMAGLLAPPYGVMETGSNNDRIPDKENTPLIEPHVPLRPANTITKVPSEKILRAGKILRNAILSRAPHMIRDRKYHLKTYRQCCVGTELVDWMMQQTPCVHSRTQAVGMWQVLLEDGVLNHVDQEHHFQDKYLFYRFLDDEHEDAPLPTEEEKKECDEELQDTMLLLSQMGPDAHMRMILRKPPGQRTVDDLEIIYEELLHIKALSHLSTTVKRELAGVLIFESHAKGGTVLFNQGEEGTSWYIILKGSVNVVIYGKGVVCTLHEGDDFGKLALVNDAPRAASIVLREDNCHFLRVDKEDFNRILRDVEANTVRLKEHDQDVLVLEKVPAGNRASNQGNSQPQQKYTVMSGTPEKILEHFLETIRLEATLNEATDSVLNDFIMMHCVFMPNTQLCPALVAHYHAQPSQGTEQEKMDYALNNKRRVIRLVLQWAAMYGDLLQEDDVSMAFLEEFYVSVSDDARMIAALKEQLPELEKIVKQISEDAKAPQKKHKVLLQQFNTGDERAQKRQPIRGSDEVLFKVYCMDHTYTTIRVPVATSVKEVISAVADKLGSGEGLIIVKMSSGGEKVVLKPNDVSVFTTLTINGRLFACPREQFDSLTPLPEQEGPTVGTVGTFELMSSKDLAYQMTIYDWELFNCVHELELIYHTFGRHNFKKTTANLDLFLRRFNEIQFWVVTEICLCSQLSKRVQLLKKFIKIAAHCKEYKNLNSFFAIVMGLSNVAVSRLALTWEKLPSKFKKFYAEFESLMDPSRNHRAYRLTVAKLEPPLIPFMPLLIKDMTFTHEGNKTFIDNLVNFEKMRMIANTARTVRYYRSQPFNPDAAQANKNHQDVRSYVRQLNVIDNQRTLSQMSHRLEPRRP
Method in brief: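 Fluorescent exchange assay: 100 nM EPAC2 with 250 nM RAP1B-BODIPY-GDP and 50 uM GDP; compound added, 5 min at room temperature, then read (ex 480/em 540 nm) every 5 min for 30 min. Normalized to 6.5 mM cAMP agonist control.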
% is scaled to controls: 0 for no effect and ±100 for the full control effect.

activation, inactive:
CC[C@H](C)[C@H](NC(=O)OCC1c2ccccc2-c2ccccc21)C(=O)O -8.07%, CCN(CC)CCNC(=O)c1ccc(NS(C)(=O)=O)cc1 -23.6%, O=C(c1ccncc1)N1CCC[C@@]2(CCN(Cc3ccncc3)C2)C1 -17.5%, O=c1c(-c2cc(F)cc(F)c2)nc2cnc(N3CCNCC3)nc2n1C1CC1 -1.29%, Nc1nc(N)c(N)c(=O)[nH]1 -2.83%, c1cncc(-c2nccc(NCc3cccs3)n2)c1 -16.9%, Cc1nc2cnc(N3CCN(C)CC3)nc2n(-c2ccccc2)c1=O 1.62%, Cc1c(Br)cnc2ccccc12 -11.3%, CS(=O)(=O)N1CCC2(CC1)CN(c1cccc(-c3ccccc3)c1)C2 -15%, O=C(c1ccco1)N1CCC[C@@]2(CCN(c3ccncc3)C2)C1 -7.38%, N#CCCn1c(=O)c(CCc2ccccc2)nc2cnc(Nc3ccccc3)nc21 4.73%, O=c1c(-c2cccs2)nc2cnc(Oc3cccc(Cl)c3)nc2n1C1CC1 -16.1%, O=Cc1cc2c3c(c1)CCCN3CCC2 -17.4%, Cc1ncc2c(c1CNS(=O)(=O)N(C)C)CCN(C(=O)c1ccc(-c3ccc(F)cc3)cc1)C2 -5.4%, O=S1(=O)CCO[C@H]2Cc3ccccc3[C@H]2N1Cc1ccc(Cl)cc1 -19%, Cc1ncoc1C(=O)N1CCOc2ccc(CN3CCN(c4ccccn4)CC3)cc2C1 -16.9%, O=S(=O)(c1ccccc1)N1CCC[C@@]2(CCN(c3ccccc3)C2)C1 -3.62%, CC#CCOC(=O)c1c(C)nc2sc3c(c2c1N)CC[C@@H](O)C3 -11.9%, COc1cccc(Cn2cc(-c3cccc(C(F)(F)F)c3)nn2)c1 -9.01%, CC1(C)C(OC(=O)CCC(=O)O)CC[C@]2(C)C1CC[C@@]1(C)C2C(=O)C=C2[C@@H]3C[C@@](C)(C(=O)O)CC[C@]3(C)CCC21C (some centres undefined) 6.05%, COc1cc(C(=O)OC(COCCC(C)C)CN2CCOCC2)cc(OC)c1OC (centres undefined) 1.78%, CCCc1nc(C(C)(C)O)c(C(=O)OCc2oc(=O)oc2C)n1Cc1ccc(-c2ccccc2-c2nn[nH]n2)cc1 -24.9%, CC/C=C\C/C=C\C/C=C\C/C=C\C/C=C\CCCC(=O)O -30.4%, Cn1cccc1C(=O)N1CCC[C@@]2(CCN(c3ccccn3)C2)C1 -18.8%, Cn1cccc1C(=O)N1CCC[C@@]2(CCN(Cc3ccccc3)C2)C1 -8.85%, CSc1nc(C(=O)N2CCOc3ccc(CN4CCN(Cc5ccccn5)CC4)cc3C2)cs1 -17.5%, CC1(C)S[C@@H]2[C@H](N=CN3CCCCCC3)C(=O)N2[C@H]1C(=O)O -17.4%, O=C(O)CNC(=O)CNC(=O)CNC(=O)CSC(=O)c1ccccc1 6.21%, COc1ccc(C(=O)N2CCC3(CCN(C(=O)Nc4cccc(C#N)c4)CC3)CC2)cc1 2.07%, Nc1ccc(C(=O)O)c(O)c1 (tested in a mixture with another compound) -8.78%, COCCn1c(=O)c(-c2cc(F)cc(F)c2)nc2cnc(OCc3ccccc3)nc21 4.9%, COCCCC/C(=N\OCCN)c1ccc(C(F)(F)F)cc1 -11.9%, CN(C)c1ncnc2ccc(-c3ccoc3)cc12 -29.9%, COC(=O)N1CCC2(CCCN(c3ccc(-c4ccccc4)cc3)C2)CC1 -18.3%, C[C@]12CCC(=O)C=C1CC[C@@H]1[C@@H]2C(=O)C[C@@]2(C)[C@H]1CC[C@]2(O)C(=O)CO -11.5% and -4.39% and -41%, NC(=O)N[C@@H](CCC(=O)O)C(=O)O -5.18%, O=C[C@H](O)[C@@H](O)[C@H](O[C@H]1O[C@H](CO)[C@@H](O[C@H]2O[C@H](CO)[C@@H](O)[C@H](O)[C@H]2O)[C@H](O)[C@H]1O)[C@H](O)CO 5.51%, N#Cc1cccc(-c2nc3cnc(Nc4ccccc4)nc3n(C[C@H]3CCCO3)c2=O)c1 -18.9%, O=C(O)CCCc1ccccc1 -10.3%, CCN(CC)CCN(C)C(=O)c1ccc(-c2ccccc2)nc1N(C)C -2.74%, O=c1c(-c2ccc(F)cc2)nc2cnc(N3CCOCC3)nc2n1C[C@H]1CCCO1 0.0522%, COc1cccc(Cn2c(=O)c(C)nc3cnc(OCc4ccccc4)nc32)c1 14.4%, O=C(N[C@@H]1c2ccccc2C2(CCN(C(=O)c3ccc4c(c3)OCCO4)CC2)[C@H]1O)c1cccnc1 -5.76%, COCCn1c(=O)c(-c2cccs2)nc2cnc(Oc3cccc(Cl)c3)nc21 -0.976%, CCOC(=O)C12CC1/C(=N\O)c1ccccc1O2 (centres undefined) -2.17%, CC1CC2C3CC(F)C4=CC(=O)C=C[C@@]4(C)[C@@]3(F)C(O)C[C@]2(C)[C@]1(O)C(=O)COC(=O)C(C)(C)C (some centres undefined) 4.02%, CN(C)CC(C)(C)CNC(=O)c1cnn(-c2ncc3c(n2)-c2ccccc2CC3)c1-c1ccco1 -10.5%, COc1cccc(Cn2c(=O)c(-c3cccc(C#N)c3)nc3cnc(OC)nc32)c1 -5.3%, O=C(CC1(c2cccc(F)c2)CC(=O)N(Cc2cccnc2)C1=O)N1CCCCCCC1 (centres undefined) -4.64%, O=C1C[C@@H]2c3c(cccc3CN1Cc1ccc(Cl)cc1)C[C@@H](O)[C@H]2O -2.96%, CCCCCCCCCCCCCCCCCCO -20.8%, COc1ccccc1CNc1ncncc1-c1cccc(NS(C)(=O)=O)c1 0.28%, CC(C)N1C[C@@H](Sc2ccccn2)C[C@H]1C(=O)Nc1ccc2c(c1)Nc1ccccc1CC2 -16.9%, COCC(=O)N1CCC2(CC1)CCN(C(c1ccccc1)c1ccccc1)CC2 -2.11%
